PubChem BioAssay AID1159614 (National Center for Advancing Translational Sciences (NCATS), 2016)
Out of some 45,000 compounds screened, about 65 (0.1%) were called active. Calls come from the whole dose curve; as a rule, active = well fitted activation curve with a large enough effect; inconclusive = small, poorly fitted or top-dose-only effect; inactive = no such curve, though single readings can be large or run the other way. The list shows a part of the results.

target: Galactocerebrosidase (Homo sapiens) (UniProt P54803); experiment: A Novel Cell-Based Assay to Identify Small Molecules for B -Galactocerebrosidase; settings: 145M-Twi-hGALC-G270D cells, HMU-beta-Gal fluorescence, 48 h; series mostly up to 57.5 µM; activation: at the top concentration; note: 0% is about no effect; nearly all actives have a fitted effect of over 65% in size
Chain of UniProt P54803 (P54803 whole entry, looked up): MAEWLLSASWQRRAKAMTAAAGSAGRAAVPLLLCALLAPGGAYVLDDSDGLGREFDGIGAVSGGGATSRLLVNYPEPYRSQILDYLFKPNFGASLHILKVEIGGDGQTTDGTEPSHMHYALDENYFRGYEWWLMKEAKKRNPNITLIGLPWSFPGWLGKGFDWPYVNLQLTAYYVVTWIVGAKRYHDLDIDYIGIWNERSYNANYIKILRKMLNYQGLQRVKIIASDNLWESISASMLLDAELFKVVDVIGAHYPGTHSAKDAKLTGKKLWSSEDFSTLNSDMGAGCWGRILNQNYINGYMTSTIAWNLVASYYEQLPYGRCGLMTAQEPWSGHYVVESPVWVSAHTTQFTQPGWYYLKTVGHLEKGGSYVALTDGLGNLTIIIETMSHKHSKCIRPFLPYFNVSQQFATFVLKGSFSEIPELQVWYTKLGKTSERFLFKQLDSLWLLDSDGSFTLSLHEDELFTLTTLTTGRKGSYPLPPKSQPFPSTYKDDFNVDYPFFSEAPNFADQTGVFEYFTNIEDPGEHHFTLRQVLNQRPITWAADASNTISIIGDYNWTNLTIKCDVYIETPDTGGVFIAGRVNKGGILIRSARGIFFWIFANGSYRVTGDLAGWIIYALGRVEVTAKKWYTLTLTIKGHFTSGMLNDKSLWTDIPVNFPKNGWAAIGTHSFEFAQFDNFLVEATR
Summary of the method: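 qHTS, 1536-well; 145M-Twi-hGALC-G270D cells (WT line also made) in DMEM/F12 + 10% FBS; compound incubation on live cells; HMU-β-gal 0.1 mM final, pH 5.2, NaTC; carbonate stop; fluorescence increase = enhanced residual activity.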

activation, inactive:
CCOC(=O)N1CCc2c(sc3c2c(=O)n(-c2ccccc2C(F)(F)F)c(=O)n3Cc2ccccc2C)C1 0.972%, Cc1ccc(CCNC(=O)c2cc3c(s2)-c2c(C)cccc2OC3)cc1 -22.6%, COc1cccc(CNC(=O)c2ccc(-c3nc(COc4ccccc4)c(C)o3)cc2)c1 -5.19%, Cc1ccc2nc(COc3ccccc3NC(=O)C(C)(C)C)cc(=O)n2c1 -6.75%, O=C(Nc1sc2c(c1C(=O)NCc1cccnc1)CCCC2)c1cc(=O)c2ccccc2o1 25.2%, CCOc1ccc(C2CC(c3c(O)n(C4CCCCC4)c(=O)[nH]c3=O)=Nc3ccccc3S2)cc1 (stereo unspecified) -12.6%, COc1cccc2c1cc1c(=O)n(CC(=O)NCc3ccc(C)o3)nc(C)n12 -5.57%, COc1cccc(-n2c(SCC(=O)Nc3c(C)cc(C)cc3C)nc3c([nH]c4ccccc43)c2=O)c1 -18.3%, Cc1nn(C(=O)c2cccc(Cl)c2)c(C)c1S(=O)(=O)N1CCOCC1 -35.4%, CCn1c(=O)cc(SCC(=O)NCc2ccc(OC)cc2OC)c2ccccc21 -9.25%, Cc1cccc(-c2nc(CCNC(=O)Cc3ccccc3)cs2)c1 -27.8%, COc1ccc(CCNC(=O)c2ccc3c(c2)N(Cc2ccc(F)cc2)C(=O)CS3)cc1OC -9.1%, O=C(COc1ccc(Cl)cc1)Nc1ccc2nc(SCC(=O)N3CCCC3)sc2c1 -13.6%, COc1ccc(OC)c(NC(=O)CSc2ccc(-c3sc(C)nc3C)nn2)c1 -18.1%, CCOC(=O)c1c(-c2ccccc2)oc2ccc(N(C(C)=O)S(=O)(=O)c3ccc(CC)cc3)cc12 -20.9%, O=C(c1nc(-c2ccc(Cl)cc2)n2c1CCCCC2)N1CCN(c2ccccc2)CC1 -18.5%, O=C(COc1ccccc1-c1nc(-c2ccccc2)no1)Nc1cccc([N+](=O)[O-])c1 -9.04%, OC(CCN1CCCCC1)(c1ccccc1)C1CCCCC1 (stereo unspecified) -14.8%, CCC(=O)N1CCc2cc(S(=O)(=O)NC(CC(C)C)C(=O)NCCc3ccccc3)ccc21 (stereo unspecified) -14.7%, COc1ccc(CCNC(=O)C(=O)NCC(c2ccco2)S(=O)(=O)c2cccs2)cc1OC (stereo unspecified) -7.6%, CCC1=Nc2cc(C(=O)NCCN(CC)CC)ccc2Sc2ccccc21 -17.6%, CCc1nc2cccnc2n1-c1ccc(CC(=O)Nc2cccc(C)c2C)cc1 -50.6%, c1ccc(CN2CCN(c3ncnc4c3cnn4-c3ccccc3)CC2)cc1 -15.5%, CCc1cccc(NC(=O)C2CCC(CNS(=O)(=O)c3ccc(Br)s3)CC2)c1 (stereo unspecified) -18.3%, Cc1ccc(NC(=O)c2cc(S(=O)(=O)N3CCc4ccccc43)cn2C)c(Cl)c1 -29.7%, Cc1ccccc1OCC(=O)Nc1cccc(C(=O)OCc2cc(=O)n3c(C)csc3n2)c1 -8.23%, COC(=O)c1ccccc1NC(=O)c1cc2cc(C)ccc2n1C -24.5%, CCOc1ccc(-c2c(C)nn3c(C)c(C(=O)NCCc4ccc(Cl)cc4)cnc23)cc1OCC -13%, Cc1ccc(S(=O)(=O)Cc2ccc(C(=O)N3CCN(c4cccc(Cl)c4)CC3)o2)cc1 -10.6%, O=C(Cn1c(=O)n(-c2ccc(Cl)cc2)c(=O)c2sc3ccccc3c21)NC1CCCC1 -12.6%, Cc1ccccc1Cn1c2ccccc2c2cnn(CC(=O)NCc3ccccn3)c(=O)c21 -5.44%, CCSc1ccccc1C(=O)Nc1ccc(-c2nc3ccccc3s2)c(O)c1 -13.6%, Cc1ccc(C)c(N2CCN(C(=O)NCc3noc4ccc(C)cc34)CC2)c1 -14.4%, O=C(NCCc1ccccc1)C1CCC(CNS(=O)(=O)c2ccc(Cl)cc2)CC1 (stereo unspecified) -9.26%, Cc1ccc(C)c(S(=O)(=O)c2nnn3c2nc(NC2CCCCC2)c2sccc23)c1 -9.09%, CCc1ccc(-n2nc(CO)c(C(=O)NCCCc3ccccc3)n2)cc1 -7.58%, Cc1ccc(-c2nc(NC(=O)CSc3nc(C)nc4sc5c(c34)CCCC5)ns2)cc1 -18.3%, CC1CCN(S(=O)(=O)c2ccc3c(ccn3CCC(=O)NCc3ccccc3F)c2)CC1 -20.5%, O=C(OCc1ccccc1)c1ccccc1 -15.2%, CCOC(=O)c1cccc(NC(=O)C2Cc3ccccc3N2C(=O)c2ccccc2)c1 (stereo unspecified) 5.62%, CCOc1ccc(C(=O)NC2CC(=O)N(c3ccc(C)cc3)C2)cc1OCC (stereo unspecified) 0.316%, O=C(Nc1ccc2c(c1)N(C1CCCC1)C(=O)c1ccccc1S2)c1ccccc1F -8.36%, COc1ccc(NC(=O)c2c(-c3ccccc3)c(-c3ccccc3)nn(C)c2=O)cc1OC -8.4%, Cc1cccc(-n2ncc3c(Nc4ccc(C)c(Cl)c4)ncnc32)c1 -15.3%, Cc1sc2c(c1C)c(=O)n(Cc1ccccc1)c(=O)n2Cc1ccc(F)cc1 2.56%, Cc1ccccc1NC(=O)CCS(=O)(=O)c1cc(Br)cc2c1N(C(=O)C1CC1)CC2 -12.9%, CCc1nn(CC(=O)N2CCCCC2)c(=O)c2cc3sc(C)cc3n12 -10.2%, Cc1ccccc1CNC(=O)CN1C(=O)C2CCCCN2c2ccc(C(=O)N3CCCC3)cc21 (stereo unspecified) -5.9%, Cc1ccc(C)c(Cn2c(=O)n(C(C)C)c(=O)c3oc4ccccc4c32)c1 -1.48%, Cc1ccc(C(=O)c2oc3ccccc3c2NC(=O)COc2ccc(C(C)C)cc2)cc1 -4.17%, O=C(Nc1ccc(S(=O)(=O)Nc2ncccn2)cc1)c1cc(=O)c2ccccc2o1 29.9%, COc1ccc(-c2cn3cccnc3n2)cc1NC(=O)Nc1ccc(Cl)cc1 -2.83%, CCOc1ccc(NC(=O)c2ccc3c(c2)CCN3S(=O)(=O)CC)cc1 -6.39%, COc1ccc(-c2cc(-c3ccccc3)nc3c2COc2ccc(F)cc2-3)cc1 -10.8%, CCN(CC)C(=O)Cn1c(=O)cc(C)c2c(C)nn(-c3ccc(C)cc3)c21 -8.23%, COc1ccc2[nH]c3c(c2c1)CCN(C(=O)c1cccc(Cl)c1)C3c1ccc(F)cc1 (stereo unspecified) -33.1%, Cc1ccc(S(=O)(=O)N2CCCc3cc(NS(=O)(=O)c4cc(C)ccc4C)ccc32)cc1 -17.6%, CC(C)c1nn2c(=O)cc(COC(=O)c3ccc(NC(=O)C4CCCCC4)cc3)nc2s1 -3.2%, Cc1ccc(CSc2ncc(Cl)c(C(=O)NCc3ccccc3)n2)cc1 -14.5%, CC1(C)S[C@@H]2[C@H](NC(=O)C(c3ccccc3)S(=O)(=O)O)C(=O)N2[C@H]1C(=O)O (stereo partly specified) -8.31%, CCn1cc(C(=O)NCCCOC(C)C)c(=O)c2cc(S(=O)(=O)N3CCOCC3)ccc21 -12.5%
